The results in this text go back to article PMC5680261.

Sequences of proteins named here, by UniProt entry; tags and fusion partners are left off. A change or cut given only in a name is not applied to a line headed by its entry. Residues count along the entry.
UniProt Q8NE86, residues 51-351: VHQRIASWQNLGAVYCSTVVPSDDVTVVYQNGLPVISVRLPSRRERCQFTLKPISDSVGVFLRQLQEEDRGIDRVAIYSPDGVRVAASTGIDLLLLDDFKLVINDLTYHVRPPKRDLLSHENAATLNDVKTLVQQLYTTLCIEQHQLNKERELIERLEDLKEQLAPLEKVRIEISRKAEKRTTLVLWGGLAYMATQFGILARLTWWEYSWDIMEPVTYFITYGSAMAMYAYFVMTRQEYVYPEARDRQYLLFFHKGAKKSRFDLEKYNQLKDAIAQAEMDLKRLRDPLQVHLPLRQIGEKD
UniProt O95202, residues 116-739: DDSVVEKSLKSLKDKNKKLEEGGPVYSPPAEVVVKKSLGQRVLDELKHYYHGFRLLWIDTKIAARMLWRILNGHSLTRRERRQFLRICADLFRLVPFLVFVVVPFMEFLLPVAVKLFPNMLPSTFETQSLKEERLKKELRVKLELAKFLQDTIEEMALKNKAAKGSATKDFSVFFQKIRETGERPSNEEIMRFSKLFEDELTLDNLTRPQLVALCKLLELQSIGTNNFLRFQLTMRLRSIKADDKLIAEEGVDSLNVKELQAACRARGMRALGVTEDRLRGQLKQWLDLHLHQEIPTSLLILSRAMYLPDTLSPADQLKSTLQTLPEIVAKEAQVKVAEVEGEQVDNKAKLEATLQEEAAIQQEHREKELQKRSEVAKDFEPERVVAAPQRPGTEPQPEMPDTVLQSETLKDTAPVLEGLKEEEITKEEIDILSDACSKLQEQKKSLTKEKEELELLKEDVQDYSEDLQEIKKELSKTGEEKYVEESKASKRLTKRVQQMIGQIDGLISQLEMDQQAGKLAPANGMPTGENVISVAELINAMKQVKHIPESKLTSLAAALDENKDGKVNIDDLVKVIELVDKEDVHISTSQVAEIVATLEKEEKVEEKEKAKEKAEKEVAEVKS
UniProt Q9BXM7, residues 78-581: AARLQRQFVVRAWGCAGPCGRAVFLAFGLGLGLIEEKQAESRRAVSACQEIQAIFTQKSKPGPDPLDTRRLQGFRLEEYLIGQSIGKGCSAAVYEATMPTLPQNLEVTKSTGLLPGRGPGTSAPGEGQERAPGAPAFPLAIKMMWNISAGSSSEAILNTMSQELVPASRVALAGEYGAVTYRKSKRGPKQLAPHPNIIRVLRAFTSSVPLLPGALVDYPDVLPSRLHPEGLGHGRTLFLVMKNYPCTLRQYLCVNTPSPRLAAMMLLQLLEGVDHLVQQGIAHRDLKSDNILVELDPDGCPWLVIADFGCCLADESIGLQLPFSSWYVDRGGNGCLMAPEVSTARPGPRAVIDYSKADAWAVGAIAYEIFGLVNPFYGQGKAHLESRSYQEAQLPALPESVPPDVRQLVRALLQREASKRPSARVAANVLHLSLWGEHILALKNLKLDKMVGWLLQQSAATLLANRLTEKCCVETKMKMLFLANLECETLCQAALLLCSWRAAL

Test [1] addresses mitochondrial calcium uniporter (MCU) (UniProt Q8NE86). As to the kind of experiment: co-IP; Co-IP between LETM1 and MCU or NCLX in HEK293 cells.
The target of test [2] is T1, mitochondrial Na+/Ca2+ exchanger (NCLX) (UniProt Q6J4K2).
T1 sequence: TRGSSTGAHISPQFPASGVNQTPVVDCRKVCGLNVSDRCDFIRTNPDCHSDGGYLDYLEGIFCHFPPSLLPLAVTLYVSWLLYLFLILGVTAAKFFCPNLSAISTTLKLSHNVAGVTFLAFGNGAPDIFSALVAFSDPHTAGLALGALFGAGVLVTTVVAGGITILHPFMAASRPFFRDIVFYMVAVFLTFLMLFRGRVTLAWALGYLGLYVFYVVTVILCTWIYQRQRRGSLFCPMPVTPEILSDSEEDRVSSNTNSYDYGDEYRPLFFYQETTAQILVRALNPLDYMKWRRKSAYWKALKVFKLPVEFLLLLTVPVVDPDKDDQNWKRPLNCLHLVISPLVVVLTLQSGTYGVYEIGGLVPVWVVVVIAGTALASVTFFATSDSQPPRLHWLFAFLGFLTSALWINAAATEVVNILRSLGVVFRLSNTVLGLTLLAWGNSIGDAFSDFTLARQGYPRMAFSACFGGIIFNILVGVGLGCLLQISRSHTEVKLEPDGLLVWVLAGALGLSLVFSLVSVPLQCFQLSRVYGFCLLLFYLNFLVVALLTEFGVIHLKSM
Described as above.

Test [3] concerns the target endogenous LETM1 (human post-mortem brain) (human (endogenous in post-mortem brain)) (UniProt O95202). Nature of the test: co-IP; human post-mortem brain lysate; IP with control IgG or anti-LETM1 and blot with anti-PINK1, and inversely IP with anti-PINK1 and blot with anti-LETM1.
The target of test [4] is endogenous LETM1 (SH-SY5Y cells) (human (endogenous in SH-SY5Y)) (UniProt O95202). As to the kind of experiment: co-IP; endogenous proteins from human SH-SY5Y neuroblastoma cells.
The target in test [5] is Myc-tagged LETM1 (pCMV-3Tag-2a LETM1) (human) (UniProt O95202). Nature of the test: co-IP; HEK293 cells co-transfected with p3xFLAG-CMV-PINK1 and pCMV-3Tag-2a LETM1 for 1 day; IP with anti-Myc and blot with anti-FLAG, and the reverse; lysis buffer 50 mM Tris-HCl pH 7.4, 100 mM NaCl, 2 mM EDTA, 1 mM DTT, 1% Triton X-100, 0.1% SDS; 4 °C.
The target in test [6] is FLAG-tagged PINK1 (p3xFLAG-CMV-PINK1) (UniProt Q9BXM7). Described as above.

No constants are given. Whether binding was seen depends on the method and setting. Binding seen in cells or lysates may run through a third protein. Some entries that bind do so weakly or less than the wild type.

In the case of “LETM1 (HEK293 cells, Co-IP with MCU or NCLX) (from UniProt O95202 116-739)”, the binding entry in test [1] and in test [2] was “no binding” in each case.
As to “endogenous PINK1 (human post-mortem brain) (from UniProt Q9BXM7 78-581) (enzyme)”, in test [3], the binding result is listed as “binds”.
Turning to “endogenous PINK1 (SH-SY5Y cells) (from UniProt Q9BXM7 78-581) (enzyme)”, in test [4], the binding result is “binds”.
Take “FLAG-tagged PINK1 (p3xFLAG-CMV-PINK1) (from UniProt Q9BXM7 78-581) (enzyme)”: the binding entry in test [5] is given as “binds”.
With “Myc-tagged LETM1 (pCMV-3Tag-2a LETM1) (from UniProt O95202-1 116-739)”, in test [6], the binding entry is reported as “binds”.
